The supplement of paper PMC9174493
This is one part of the list. Single values of this set are uncertain. Values with irradiation are relative to irradiated vehicle.

Tests used:
A549-Dual [1] = assay: NF-kB reporter (SEAP) activity, viability-corrected, relative to vehicle (fold change vs vehicle); higher = more activation of STING-IRF / NF-kB immune response reporter; details: 10 µM
A549-Dual [2] = assay: ISRE reporter (Lucia luciferase) activity, viability-corrected, relative to vehicle (fold change vs vehicle); higher = more activation of STING-IRF / NF-kB immune response reporter; details: 10 µM
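Throughout, for NF-kB reporter (SEAP) activity, viability-corrected, relative to vehicle: viability correction based on the alamar blue assay, with concentrations leaving 10% survival or less dropped.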

| Compound | NF-kB reporter (A549-Dual [1]; irradiation: 8 Gy/4 fr) | NF-kB reporter (A549-Dual [1]; irradiation: none) | ISRE reporter (A549-Dual [2]; irradiation: 8 Gy/4 fr) | ISRE reporter (A549-Dual [2]; irradiation: none) |
| --- | --- | --- | --- | --- |
| CC(C)(C)NCC(O)COc1ccccc1C1CCCC1.CC(C)(C)NCC(O)COc1ccccc1C1CCCC1.O=S(=O)(O)O (configuration not stated) [Penbutolol Sulfate] | 0.676 | 0.906 | 0.56 | 0.689 |
| CN(CCOc1ccc(CC2SC(=O)NC2=O)cc1)c1ccccn1.O=C(O)/C=C\C(=O)O (configuration not stated) [Rosiglitazone maleate] | 0.754 | 0.943 | 0.621 | 0.87 |
| Cc1c(C)c2c(c(C)c1O)CCC(C)(CCCC(C)CCCC(C)CCCC(C)C)O2 (configuration not stated) [Vitamin E] | 1.33 | 0.908 | 1.08 | 0.584 |
| O=C([O][Na])[O][Na] [Sodium carbonate] | 0.988 | 0.745 | 0.944 | 0.63 |
| CS(=O)(=O)O.O=C(OC1CC2CC3CC(C1)N2CC3=O)c1c[nH]c2ccccc12 (configuration not stated) [Dolasetron Mesylate] | 0.738 | 1.54 | 0.849 | 0.917 |
| CCOC(=O)C(CCc1ccccc1)NC(C)C(=O)N1C(=O)N(C)CC1C(=O)O.Cl (configuration not stated) [Imidapril HCl] | 0.698 | 1 | 0.647 | 0.756 |
| CC(C)OC(=O)C(C)NP(=O)(OCC1OC(n2ccc(=O)[nH]c2=O)C(C)(F)C1O)Oc1ccccc1 (configuration not stated) [Sofosbuvir (PSI-7977, GS-7977)] | 0.828 | 1.11 | 0.745 | 0.804 |
| COc1ccnc(CS(=O)c2nc3cc(OC(F)F)ccc3[n-]2)c1OC.[Na+] (configuration not stated) [Pantoprazole sodium] | 0.749 | 0.45 | 0.582 | 0.508 |
| CC1(C)SC2C(NC(=O)C(N)c3ccc(O)cc3)C(=O)N2C1C(=O)O (configuration not stated) [Amoxicillin] | 0.842 | 0.924 | 0.805 | 0.711 |
| Cl.O=C1Cc2cc(CCN3CCN(c4nsc5ccccc45)CC3)c(Cl)cc2N1 [Ziprasidone HCl] | 0.999 | 0.863 | 0.792 | 0.599 |
| NCCCCC(NC(CCc1ccccc1)C(=O)O)C(=O)N1CCCC1C(=O)O (configuration not stated) [Lisinopril] | 0.873 | 1.2 | 0.811 | 0.984 |
| COc1cc2c(cc1OC)C1CC(OC(=O)C(N)C(C)C)C(CC(C)C)CN1CC2.Cc1ccc(S(=O)(=O)O)cc1.Cc1ccc(S(=O)(=O)O)cc1 (configuration not stated) [Valbenazine tosylate] | 0.746 | 0.523 | 0.799 | 0.705 |
| COc1cc([N]([Na])S(=O)(=O)c2ccc(N)cc2)nc(OC)n1 [SulfadiMethoxine sodium] | 0.877 | 0.848 | 0.84 | 0.743 |
| C[N+](C)(C)CCOC(N)=O.[Cl-] [Carbachol] | 0.944 | 1.09 | 0.606 | 0.466 |
| C=C1CCC2OC2(C)CCC2C1CC2(C)C (configuration not stated) [Caryophyllene oxide] | 0.703 | 0.707 | 0.618 | 0.537 |
| Cc1cc(C)nc(O)n1.O=C(Nc1ccc([N+](=O)[O-])cc1)Nc1ccc([N+](=O)[O-])cc1 [Nicarbazin] | 0.664 | 0.821 | 0.371 | 0.601 |
| O=C(O)CCCCC1CCSS1 (configuration not stated) [Thioctic acid] | 1.2 | 0.733 | 1.27 | 0.831 |
| Cl.O=C1OC(CN2CCOCC2)CN1/N=C/c1ccc([N+](=O)[O-])o1 (configuration not stated) [Furaltadone HCl] | 0.787 | 0.839 | 0.876 | 0.719 |
| Cc1ccc(/C(=C\CN2CCCC2)c2ccccn2)cc1.Cl.O [Triprolidine Hydrochloride] | 0.888 | 1.46 | 0.732 | 0.911 |
| CC12CCC3c4ccc(O)cc4CCC3C1CCC2OC(=O)CCC1CCCC1 (configuration not stated) [Estradiol Cypionate] | 0.616 | 1.02 | 0.343 | 0.576 |
| CN(C)C1C(O)=C(C(N)=O)C(=O)C2(O)C(O)=C3C(=O)c4c(O)cccc4C(C)(O)C3C(O)C12.O.O (configuration not stated) [Oxytetracycline Dihydrate] | 0.728 | 0.954 | 0.723 | 0.932 |
| CCc1nn(CCCN2CCN(c3cccc(Cl)c3)CC2)c(=O)n1CCOc1ccccc1.Cl [Nefazodone hydrochloride] | 0.644 | 0.535 | 0.624 | 0.495 |
| CC12CCC3c4ccc(O)cc4CCC3C1CC(O)C2O (configuration not stated) [Estriol] | 1 | 1.02 | 0.781 | 0.807 |
| CCC1OC(=O)C(C)C(OC2CC(C)(OC)C(O)C(C)O2)C(C)C(OC2OC(C)CC(N(C)C)C2O)C(C)(O)CC(C)/C(=N/OCOCCOC)C(C)C(O)C1(C)O (configuration not stated) [Roxithromycin] | 0.774 | 0.994 | 0.849 | 0.938 |
| NC(=O)N1c2ccccc2C=Cc2ccccc21 [Carbamazepine] | 0.646 | 1.05 | 0.684 | 1.03 |
| CC(COc1ccccc1)NC(C)C(O)c1ccc(O)cc1.Cl (configuration not stated) [Isoxsuprine hydrochloride] | 0.739 | 1.27 | 0.897 | 1.13 |
| CCOC(N)=O [Urethane] | 0.704 | 1.19 | 0.679 | 0.692 |

| Compound | NF-kB reporter (A549-Dual [1]; irradiation: 8 Gy/4 fr) | NF-kB reporter (A549-Dual [1]; irradiation: none) | ISRE reporter (A549-Dual [2]; irradiation: 8 Gy/4 fr) | ISRE reporter (A549-Dual [2]; irradiation: none) |
| --- | --- | --- | --- | --- |
| CCn1cc(C(=O)O)c(=O)c2cc(F)c(N3CCN(C)CC3)cc21.CS(=O)(=O)O.O.O [Pefloxacin Mesylate Dihydrate] | 0.847 | 0.943 | 0.791 | 0.776 |
| CCOC(=O)NC1CCC2C(C1)CC1C(=O)OC(C)C1C2/C=C/c1ccc(-c2cccc(F)c2)cn1 (configuration not stated) [Vorapaxar] | 0.668 | 1.1 | 0.736 | 1.59 |
| CC(C)OC(=O)OCOP(=O)(COC(C)Cn1cnc2c(N)ncnc21)OCOC(=O)OC(C)C.O=C(O)/C=C/C(=O)O (configuration not stated) [Tenofovir Disoproxil Fumarate] | 0.633 | 1.01 | 0.584 | 0.877 |
| Cl.Cl.OCCN1CCN(CCCN2c3ccccc3Sc3ccc(C(F)(F)F)cc32)CC1 [Fluphenazine dihydrochloride] | 0.796 | 1.02 | 0.727 | 1.17 |
| COC1(NC(=O)Cc2cccs2)C(=O)N2C(C(=O)[O-])=C(COC(N)=O)CSC21.[Na+] (configuration not stated) [Cefoxitin sodium] | 0.671 | 0.749 | 0.723 | 0.683 |
| CC(O)C1C(=O)N2C(C(=O)O)=C(SC3CNC(C(=O)N(C)C)C3)C(C)C12.O.O.O (configuration not stated) [Meropenem Trihydrate] | 0.646 | 0.756 | 0.701 | 0.582 |
| CC(C(O)c1ccc(O)cc1)N1CCC(Cc2ccccc2)CC1.CC(C(O)c1ccc(O)cc1)N1CCC(Cc2ccccc2)CC1.O=C(O)C(O)C(O)C(=O)O (configuration not stated) [Ifenprodil Tartrate] | 0.655 | 0.776 | 0.779 | 0.961 |
| CCCCCCCN(CC)CCCC(O)c1ccc(NS(C)(=O)=O)cc1.CCCCCCCN(CC)CCCC(O)c1ccc(NS(C)(=O)=O)cc1.O=C(O)/C=C/C(=O)O (configuration not stated) [Ibutilide Fumarate] | 0.877 | 0.897 | 1.07 | 1.31 |
| CCN(CC)CCNC(=O)c1cc(S(C)(=O)=O)ccc1OC.Cl [Tiapride Hydrochloride] | 0.677 | 0.807 | 0.631 | 0.526 |
| NC(=O)CC[C@H](N)C(=O)O [L-Glutamine] | 0.804 | 0.813 | 0.9 | 0.886 |
| CN1C(CC(=O)c2ccccc2)CCCC1CC(O)c1ccccc1.Cl (configuration not stated) [Lobeline hydrochloride] | 0.506 | 0.683 | 0.643 | 0.831 |
| CCCCCCCCCC(=O)NC(Cc1c[nH]c2ccccc12)C(=O)NC(CC(N)=O)C(=O)NC(CC(=O)O)C(=O)NC1C(=O)NCC(=O)NC(CCCN)C(=O)NC(CC(=O)O)C(=O)NC(C)C(=O)NC(CC(=O)O)C(=O)NCC(=O)NC(CO)C(=O)NC(C(C)CC(=O)O)C(=O)NC(CC(=O)c2ccccc2N)C(=O)OC1C (configuration not stated) [Daptomycin] | 0.837 | 0.956 | 0.863 | 0.842 |
| CO/N=C(\C(=O)NC1C(=O)N2C(C(=O)O)=C(CSC(=O)c3ccco3)CSC12)c1csc(N)n1 (configuration not stated) [Ceftiofur] | 0.736 | 0.889 | 0.675 | 0.643 |
| CN1C(=O)CC(c2ccccc2)C1=O (configuration not stated) [Phensuximide] | 0.929 | 0.899 | 0.916 | 0.856 |
| OCC(O)CN1CCN(c2ccccc2)CC1 (configuration not stated) [Dropropizine] | 1.12 | 0.697 | 0.988 | 0.484 |
| Cc1cc2c(s1)Nc1ccccc1N=C2N1CCN(C)CC1 [Olanzapine] | 1.44 | 0.853 | 1.46 | 1.03 |
| CCN(CCCc1ccccc1)CCCc1ccccc1.O=C(O)CC(O)(CC(=O)O)C(=O)O [Alverine Citrate] | 0.82 | 0.927 | 0.895 | 0.888 |
| Nc1ccc(S(=O)(=O)Nc2ccc(Cl)nn2)cc1 [Sulfachloropyridazine] | 0.665 | 0.944 | 0.69 | 0.661 |
| Cc1onc(-c2ccccc2Cl)c1C(=O)NC1C(=O)N2C1SC(C)(C)C2C(=O)[O-].O.[Na+] (configuration not stated) [Cloxacillin Sodium] | 0.863 | 1.35 | 0.835 | 0.708 |
| CC=Cc1ccc(OC)cc1 (stereo in doubt) [cis-Anethole] | 1.14 | 0.773 | 0.871 | 0.595 |
| CC1CCOC2Cn3cc(C(=O)NCc4ccc(F)cc4F)c(=O)c([O][Na])c3C(=O)N12 (configuration not stated) [Dolutegravir Sodium] | 0.626 | 0.809 | 0.479 | 0.654 |
| c1cnc(N2CCN(Cc3ccc4c(c3)OCO4)CC2)nc1 [Piribedil] | 0.462 | 0.857 | 0.52 | 0.803 |
| CC(=O)O.N=C(N)NCCCC(NC(=O)C1CCCN1C(=O)C1CSSCCC(=O)NC(Cc2ccc(O)cc2)C(=O)NC(Cc2ccccc2)C(=O)NC(CCC(N)=O)C(=O)NC(CC(N)=O)C(=O)N1)C(=O)NCC(N)=O (configuration not stated) [Desmopressin Acetate] | 0.905 | 0.693 | 0.782 | 0.565 |
| CC1(C)CC(=O)CC(C)(C)N1 [TriacetonaMine] | 1.28 | 0.914 | 1.38 | 0.735 |
| COC1C(OC(=O)/C=C/C=C/C=C/C=C/C(=O)O)CCC2(CO2)C1C1(C)OC1CC=C(C)C (configuration not stated) [Fumagillin] | 0.658 | 0.924 | 0.537 | 0.828 |
| CC(=O)OC1CC2CCC3C(CCC4(C)C3CC([N+]3(C)CCCCC3)C4OC(C)=O)C2(C)CC1N1CCCCC1.[Br-] (configuration not stated) [Vecuronium Bromide] | 0.702 | 0.836 | 0.759 | 0.899 |
